# PMC4336329 (PLoS ONE, 2015)
# In all, about 310,000 compounds went through this assay and about 2,200 (0.71%) showed an effect of 50% or more. Effects have a minus sign here. The list shows a part of the results.
# Target: human ether-à-go-go-related gene (hERG) potassium channel (human, UniProt Q12809)
# Assay: primary screen, population patch clamp on CHO cells stably expressing hERG
# Chain of human ether-à-go-go-related gene (hERG) potassium channel (Q12809 whole entry, looked up): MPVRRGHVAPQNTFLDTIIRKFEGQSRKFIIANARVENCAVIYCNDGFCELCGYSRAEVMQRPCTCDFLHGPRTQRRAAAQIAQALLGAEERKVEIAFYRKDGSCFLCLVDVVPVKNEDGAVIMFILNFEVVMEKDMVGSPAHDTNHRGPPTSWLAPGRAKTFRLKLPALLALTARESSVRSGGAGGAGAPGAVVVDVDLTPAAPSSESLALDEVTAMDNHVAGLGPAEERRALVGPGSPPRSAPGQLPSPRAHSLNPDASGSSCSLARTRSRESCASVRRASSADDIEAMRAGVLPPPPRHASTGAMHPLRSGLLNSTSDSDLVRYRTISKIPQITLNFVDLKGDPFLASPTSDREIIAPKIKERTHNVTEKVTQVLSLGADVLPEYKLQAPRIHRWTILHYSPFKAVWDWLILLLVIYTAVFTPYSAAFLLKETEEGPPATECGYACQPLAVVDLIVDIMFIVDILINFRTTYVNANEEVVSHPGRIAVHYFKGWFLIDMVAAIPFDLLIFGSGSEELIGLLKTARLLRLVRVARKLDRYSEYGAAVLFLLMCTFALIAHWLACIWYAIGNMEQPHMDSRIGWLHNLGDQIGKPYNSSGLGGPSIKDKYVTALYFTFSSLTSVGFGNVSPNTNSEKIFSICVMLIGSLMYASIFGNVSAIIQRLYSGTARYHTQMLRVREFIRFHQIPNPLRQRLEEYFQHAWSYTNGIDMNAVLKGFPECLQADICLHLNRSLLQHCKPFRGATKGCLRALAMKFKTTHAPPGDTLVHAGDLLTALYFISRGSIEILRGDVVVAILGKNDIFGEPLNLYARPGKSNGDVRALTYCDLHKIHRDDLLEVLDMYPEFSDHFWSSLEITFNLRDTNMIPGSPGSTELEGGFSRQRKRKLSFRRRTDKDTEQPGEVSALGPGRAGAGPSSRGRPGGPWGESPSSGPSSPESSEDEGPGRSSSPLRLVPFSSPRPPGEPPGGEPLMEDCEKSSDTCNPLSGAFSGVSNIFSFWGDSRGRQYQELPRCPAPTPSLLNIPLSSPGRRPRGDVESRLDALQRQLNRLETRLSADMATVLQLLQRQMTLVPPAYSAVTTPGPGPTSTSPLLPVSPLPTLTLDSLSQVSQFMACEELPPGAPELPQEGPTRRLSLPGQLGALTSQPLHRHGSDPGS
row,Compound,"hERG current change (%, negative = inhibition) at 1uM [%]"
1,C=CCN(Cc1cccc(OC)c1OC)C(=O)Oc1ccccc1,14.3
2,O=C(NCc1nc2ccccc2[nH]1)C1=C[C@@H](c2csc3ccccc23)C[C@@H](OCc2ccc(CO)cc2)O1,8.2
3,COc1ccccc1NC(=O)Cc1nc(CCl)cs1.Cl,4.96
4,COc1ccc(N2CCN(c3ncnc4scc(-c5ccccc5)c34)CC2)cc1,10.6
5,C=CCNc1nc(C(=O)OCC(=O)NCc2ccccc2OC)cs1,15
6,C/C(=N\N=C(c1ccccc1)c1ccccc1)c1cccs1,5.65
7,O=C(Nc1nnc(SCc2ccccc2F)s1)c1ccco1,0.801
8,COc1ccc(NC(=O)CCCN2C(=O)C(c3ccccc3)Oc3cccnc32)c(OC)c1 (stereo not shown),10.6
9,O=C(O)c1ccc(Cn2c(SCc3cc(=O)n4cc(Br)ccc4n3)nc3ccsc3c2=O)cc1,3.87
10,Cc1ccc(S(N)(=O)=O)cc1NC(=O)C(c1ccccc1)c1ccccc1,20.4
11,COc1ccc(C(=O)c2sc(Nc3ccccc3)nc2N)cc1,16.7
12,CC(C)C[C@@H](NC(=O)C1CCC(CNC(=O)[C@@H]2CCCN2C(=O)OC(C)(C)C)CC1)C(=O)O (stereo partly shown),12.2
13,CCCCNCCOCCOc1ccc(C)cc1Br.O=C(O)C(=O)O,-5.59
14,O=C(NCCc1ccc(Cl)cc1)c1ccc(CS(=O)Cc2ccc(Cl)cc2)o1 (stereo not shown),3.84
15,CCCc1c(C)[nH]c2ccc(NC(C)=O)cc2c1=O,10.7
16,CC1(C)Cc2nc3nc(SCC(=O)NCCc4ccccc4)n(-c4ccccc4)c(=O)c3cc2CO1,-9.93
17,CCCN(CCC)S(=O)(=O)c1ccc(C(=O)Nc2cc3oc4ccccc4c3cc2OC)cc1,4.46
18,c1nc(N2CCCCCC2)c2[nH]cnc2n1,6.77
19,COc1ccc(NC(=O)CCCN2C(=O)C(c3ccccc3)Oc3cccnc32)cc1OC (stereo not shown),1.61
20,COc1cc(C(=O)N2CCN(c3ccc([N+](=O)[O-])cc3)CC2)ccc1OCc1c(C)noc1C,-4.59
21,COc1ccc(C(=O)NC2CCCc3c2cnn3-c2cc(F)cc(F)c2)c(OC)n1 (stereo not shown),10.5
22,CCCC(=O)Nc1ccccc1NC(C)=O,9.5
23,CC(Nc1nc(N2CCN(CCO)CC2)nc2ccccc12)c1ccccc1 (stereo not shown),-25.9
24,N#CCSc1nc2ccccc2c(=O)n1CCC(=O)NC1CCCCC1,-5.72
25,CNS(=O)(=O)c1cccc(C(=O)OCC(=O)c2cc(C)n(-c3ccc4c(c3)OCO4)c2C)c1,3.72
26,Cc1ccc(S(=O)(=O)Nc2ccccc2CNc2ccc(Br)cn2)cc1,7.02
27,O=C(NCCc1ccccc1F)C1CC(=O)N(c2ccccc2)C1 (stereo not shown),6.74
28,COc1ccc(N2C(=O)CCC2(C#N)c2ccc(OC)cc2)cc1 (stereo not shown),19.6

row,Compound,"hERG current change (%, negative = inhibition) at 1uM [%]"
1,O=C(Nc1ncc(Cc2ccccc2)s1)C1CCCO1 (stereo not shown),7.95
2,CCOc1nc(C)cc(C)c1S(=O)(=O)c1cccc(Cl)c1,18.6
3,Cn1nnnc1SCC(=O)Nc1ccccc1N1CCOCC1,8.58
4,CCNc1nnc(SCC(=O)N2c3ccccc3NC(=O)CC2C)s1 (stereo not shown),13.2
5,CCOC(=O)c1c(C)nc2c(c1C)/C(=N/O)CC(C)(C)C2,11.6
6,Cc1cc(NC(=O)CSc2nnc(CNC(=O)c3ccccc3)o2)no1,4.63
7,COc1ccc(-n2c(-c3ccccc3)c[n+]3c2CCC3)cc1.[Br-],6.43
8,O=C(Cn1cnc2c(nnn2-c2ccccc2)c1=O)N1CCCc2ccccc21,-4.2
9,O=S(=O)(CCc1nnc(-c2ccc(Br)cc2)o1)c1ccc(Cl)cc1,6.04
10,CC1CCCC(NC(=O)CSC2CCCCC2)C1C (stereo not shown),-4.18
11,COCCSc1ccccc1C(=O)Nc1ccccc1C(C)C,8.69
12,O=c1c(/C=N/N2CCOCC2)c(C(F)(F)F)[nH]n1-c1ccccc1,5
13,O=C(Cn1cnc2c(nnn2Cc2ccccc2F)c1=O)NCc1ccco1,3.49
14,COC(=O)c1ccc(C)c(NC(=O)C(CCSC)NC(=O)c2cc(OC)c(OC)c(OC)c2)c1 (stereo not shown),13.8
15,CCN(CCCNC(=O)c1c(C)cc(=O)oc1C)c1cccc(C)c1,-10.5
16,COc1ccccc1NC(=O)C1Cc2ccccc2CN1C(=O)c1ccco1 (stereo not shown),7.78
17,COc1ccc(-c2nc3ccc(C)cn3c2NCc2ccccc2)cc1SC1CCCCC1.O=C(O)C(F)(F)F,8.17
18,Cc1ccc(NC(=O)COC(=O)c2cccnc2)c(C)c1,16.2
19,CC(C)CC(C)N1CCC(n2nccc2NC(=O)CCc2ccccc2)CC1 (stereo not shown),9.07
20,Cc1ccc(S(=O)(=O)N2CCOCC2)cc1C(=O)OCC(=O)c1ccc(Br)cc1,10.7
21,Cn1c(=O)oc2cc(NC(=O)CCl)ccc21,6.38
22,CCOc1ccc2nc(N(CCN(C)C)C(=O)/C=C/c3cccs3)sc2c1.Cl,6.02
23,COc1cc(NC(=O)c2ccc3c(c2)OCO3)ccc1NC(=O)C(C)C,13.6
24,COc1ccc(OC(C)C(=O)Nc2cccc(F)c2)cc1 (stereo not shown),12.7
25,O=C(NCCCN1CCOCC1)c1cc(S(=O)(=O)N2CCN(c3ccccc3)CC2)ccc1Cl,-12.1
26,CCN1CCN(c2cc(=O)n(-c3cc(Cl)ccc3C)c(=O)[nH]2)CC1,-0.632
27,COc1ccc(S(=O)(=O)Cc2ccc(C(=O)N3CCN(c4cccc(C)c4)C(C)C3)o2)cc1 (stereo not shown),-7.82
